# The other results are listed elsewhere or left out.
# System: PfHDP1 homeodomain (GST-tagged)
# Test: gcPBM binding intensity (ln(normalized median fluorescence intensity)); higher = stronger DNA binding
# Method in brief: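 An Agilent 4 × 180k array of primer-extended double-stranded 36-bp intergenic genomic probes, with negative controls, was incubated for 1 h with GST-tagged P. falciparum DNA-binding domains expressed in E. coli. Alexa488 anti-GST antibody detected bound protein, scanned at 488 nm. Binding intensity is the highest Masliner-normalised natural-log median intensity across replicate spots of either probe orientation.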
row,Sequence,gcPBM binding intensity (ln)
1,ATACATATACACATTTGTACATATTCCTTTTTATCG [XGTACX_site1731],6.86
2,TTATTTAAAATGAAAAGTACATATTACTTTCTCACA [XGTACX_site5043],6.47
3,TCTTGTTTTAATTTTTATATTATTATTTAGATATAT [CACACA_negctrl_site921],6.63
4,TAGTATTATTTTTTTTGTACATATAAATGTAAAATA [XGTACX_site5282],6.12
5,AAAACATAAATACATACACACATAATATATATTAAG [CACACA_site4239],6.75
6,TTTTTTTAAAATATGAGTACATAATATTGTAAAAAT [XGTACX_site6536],6.56
7,TTAATATATAATAAATTTTTTTTTTTTTTTTTTTTT [CACACA_negctrl_site892],6.61
8,ATATATTAATATGTGTGTACTTAACCATTCATATGT [XGTACX_site7395],6.57
9,TATATAAATATATAATGTACGTTTTAAAAATAATAT [XGTACX_site3881],7.1
10,TTAATATGAAAACTCTGTACCCAACCTTCTTATGGA [XGTACX_site2126],6.01
11,CTTGGTAGTTTTTTCTTATAATCTAATTATTAATAA [CACACA_negctrl_site153],6.54
12,TTAACCACTAAAAGTACACACATATATACCTATATA [CACACA_site6026],6.44
13,TTTTAATAATATGGATGTACATAAAAATAAATAAAT [XGTACX_site7937],6.92
14,ATATAATAAATGTAGGTGCATAAAAATATTTTGTTA [GTGCAC_site9780],9.6
15,TACACAAATATATACATACACACATATATACGCATA [CACACA_site394],6.82
16,TAATATTGACTATATACACACATATATATATATATA [CACACA_site575],9.41
17,CAGACATATTAAAAGAGTACATATATATATATATAT [XGTACX_site1158],9.32
18,TGTTTATTACTCAGGTGTACTCAATTTTTTTTTTTT [XGTACX_site3470],6.72
19,AAAAAAAAAAAAGAACGTACAAATTAATTTATAGAA [XGTACX_site5584],6.57

row,Sequence,gcPBM binding intensity (ln)
1,TATTTACAAAAAAAATATAAAAAATATAAAATATAT [CACACA_negctrl_site575],6.13
2,AATATTAAAATAAAAAGTACTTATTTATGTATGTTG [XGTACX_site2682],6.41
3,TGTATAATATTTGGTGCACACAAATTAACAACTGTT [CACACA_site9245],10.6
4,TTTATATAACAACAAAATGGAAATATATATGTATGT [TGCATGCA_negctrl_site98],6.7
5,ATAAAAAAAAAAAAAAGTACACATATAAAAGTATTG [XGTACX_site8265],6.39
6,TAAATAATATCTATCACACACGCATAAATACAGATA [CACACA_site5449],6.55
7,ATTTATTTTATTTTCACACACAAAAATAAATATCCG [CACACA_site2414],6.61
8,AAATTTATGTGTGCCTGTACATATCAAAGATTTAAG [XGTACX_site8547],6.36
9,CGCAATTAAAATATGTGTCCTCATTTTATAACATTT [XGTACX_site5340],6.41
10,ATTCTACCACGCGATATACACACTTGTAGACATCTT [CACACA_site188],6.92
11,TATAATGTATGTAGTGCACACCTCTATAATATATTA [CACACA_site8560],9.5
12,ATATATCTATAAAAGGCTTCCCACTTTTTTTGTCAA [TGCATGCA_negctrl_site332],6.39
13,ATAATAAAAAAAATTAGTACATATATAAATATAAAT [XGTACX_site1937],6.11
14,TAATTTCTTAGGTATTGTACAAATATTATATGATAT [XGTACX_site256],6.78
15,AGTACATTTTTGTGTGTGCACTAATATTATATACTT [GTGCAC_site9568],9.81
16,AATAAATAAAGAAGTACACACATATATATATATATA [CACACA_site4314],9.39
17,TATTTTTAAAATATAAGTAAAAAAATAATATAAACT [TGCATGCA_negctrl_site283],6.59
18,AAATGAATAAATAGGTCACACACAAATATATATAAA [CACACA_site8764],6.98
19,ATATATATATATATATGTACATATACATATGTGCAA [XGTACX_site5604],9.34

row,Sequence,gcPBM binding intensity (ln)
1,TATATTAAAAAAGAGGTGCATTCGTAAGAGGTTAAA [GTGCAC_site9720],8.15
2,TCATATTGGCTGTTCTGTACTTATAAGTTTTAAAGA [XGTACX_site5593],6.79
3,ATGTAATATTTACAACGTACAAATTATAAACATATT [XGTACX_site603],6.34
4,TTTGTTAATATAAAAACACACAAAAATAACATAAAA [CACACA_site2619],6.86
5,GACATAGTCATATACTGTACTTTATATTATTGTGTA [XGTACX_site6636],5.97
6,TACAGATATAAACACACACACATATATATATATATA [CACACA_site4846],9.27
7,TTTTTTTTTTTTTTTTGTACTTATAAAAAATTTTTT [XGTACX_site1249],6.43
8,TTTTTTTTCATTGGTTGTACAATATTTATAATTCAC [XGTACX_site7036],7.23
9,AATCCCCACTTGTCAAGTACATATATCATGGATGAA [XGTACX_site3486],6.51
10,GCCAAAATCTAATTTACACACTTATTAAATAATTAC [CACACA_site6251],6.56
11,TATTTATAACAAAGGTTAAATTAAAACTAATCCACA [TGCATGCA_negctrl_site3],6
12,TCATAAAAACTAATACGTACTTAAAAATATGAACTT [XGTACX_site2939],6.23
13,AAAAAAAAGTTGTATTGTACAAAAAAAAAAAAAAAA [XGTACX_site8334],6.27
14,TTATGTAAAAAAAAAAAAAAAAAAAAAAAAAAAAAA [CACACA_negctrl_site984],5.88
15,GATAAAGTACTTTATACACACAAATATTTATTTATA [CACACA_site7795],6.51
16,TCTTCATATAAGAACACATGCAGATTTTTATTATTG [TGCATGCA_site682],6.16
17,AAAAAAAAAAAAAAACGTACACATATTATGTTATTT [XGTACX_site5264],6.54
18,CATATAATATAATTATGTACATATATAATAATATAC [XGTACX_site5278],6.52

# — the supplement of paper PMC11417369
